# Results taken from PubChem BioAssay (NCATS).
# Values joined by “and” are separate entries in the source; they are usually repeats but may differ in a detail not shown here. Identical values can stand only once. Inconclusive results, whose numbers are uncertain, are shown with a selection of clear calls. Potencies beside an inconclusive call are fits to weak or partial responses and may not hold up. Some compounds were tested as several samples or in several runs, with calls that do not always agree. Active and inactive are the calls of the source. Calls come from the whole dose curve; as a rule, active = well fitted inhibition curve with a large enough effect; inconclusive = small, poorly fitted or top-dose-only effect; inactive = flat fitted curve, though single readings scatter.
# Experiment: Primary qHTS for inhibitors of nuclear receptor binding SET domain protein 2 (NSD2) in an isogenic RCH-ACV NSD2 p.E1099K mutant (9B) (AID 1645876); note: nearly all actives have a fitted effect of over 70% in size
# Details: RCH-ACV (leukaemia line) NSD2 E1099K (9B) viability, CellTiter-Glo, 72 h; series mostly up to 44.9 µM; activity change, negative = viability loss: at the top concentration
# % is set by controls: 0 for no effect and ±100 for the full control effect; potency is the fitted concentration of half-maximal effect; tags give direction and shape of the fitted curve.
SMILES,Potency,"activity change, negative = viability loss",outcome
Oc1ccc(C2CNCCc3c2cc(O)c(O)c3Cl)cc1 (configuration not stated),inactive,,
CN1C(C(=O)Nc2ccccn2)=C(O)c2sccc2S1(=O)=O,inactive,,
O=[N+]([O-])c1cn2c(n1)OC[C@@H](OCc1ccc(OC(F)(F)F)cc1)C2,,inactive: -15.9%,
COc1ccc(CC2c3cc(OC)c(OC)cc3CC[N+]2(C)CCC(=O)OCCCCCOC(=O)CC[N+]2(C)CCc3cc(OC)c(OC)cc3C2Cc2ccc(OC)c(OC)c2)cc1OC (configuration not stated),active: 23.5 µM,,
Nc1nc(Cl)nc2c1ncn2[C@@H]1O[C@H](CO)[C@@H](O)[C@H]1F,active: 0.0231 µM,,
Nc1ccc(S(=O)(=O)Nc2ccccn2)cc1,,inactive: 1.16%,
O=C(NC[C@H](O)CO)c1ccncc1Nc1ccc(I)cc1F,"inconclusive: 18.6 µM [inhibitor, partial curve]",,
COc1ccc(CCN(C)CCCOc2ccc(S(=O)(=O)c3[nH]c4ccccc4c3C(C)C)cc2)cc1OC,active: 13.2 µM,,
CC(=O)[C@H]1CC[C@H]2[C@@H]3CC=C4C[C@@H](O)CC[C@]4(C)[C@H]3CC[C@]12C,inactive,,
CCCS(=O)(=O)Nc1ccc(F)c(C(=O)c2c[nH]c3ncc(-c4ccc(Cl)cc4)cc23)c1F,active: 18.4 µM and inactive,,
NS(=O)(=O)c1cc2c(cc1Cl)NC=NS2(=O)=O,inactive,,
CCC(c1ccc(O)cc1)C(CC)c1ccc(O)cc1 (configuration not stated),"inconclusive: 26.3 µM [inhibitor, single point]",,
CCCCOc1c(C(=O)c2c(F)cc(C)cc2F)cnc2n[nH]cc12,"active: 817 nM and inconclusive: 662 nM [inhibitor, full curve]",,
CC(c1cc2ccccc2s1)N(O)C(N)=O (configuration not stated),"inconclusive: 29.9 µM [inhibitor, single point]",,
NCCCC(N)(C(=O)O)C(F)F (configuration not stated),"inconclusive: 16.8 µM [inhibitor, partial curve, poor fit]",,
Cc1ccc(Nc2nccc(N(C)c3ccc4c(C)n(C)nc4c3)n2)cc1S(N)(=O)=O,active: 5.31 µM and active: 1.83 µM and active: 4.17 µM,,
NS(=O)(=O)c1cc(Cl)c(Cl)c(S(N)(=O)=O)c1,,,inactive
CN1CCCN(C(=O)c2cccc(-c3ccc(C=C4C(=O)Nc5ccc(Cl)cc54)o3)c2)CC1,active: 0.206 µM,,
O=C(Nc1ncc(SCCN2CCCC2)s1)[C@]1(c2ccc(S(=O)(=O)C3CC3)cc2)C[C@@H]1C1CCCCC1,active: 20.6 µM,,

SMILES,Potency,"activity change, negative = viability loss",outcome
CC(C)Oc1ccc(C(=O)N[C@H](CNC(=O)CN(C)C)Cc2ccc(-c3cn4cccc([C@H](C)O)c4n3)cc2)cc1Cl,active: 0.059 µM,,
OC[C@@H](O)[C@@H](O)[C@H](O)[C@@H](O)CO,,inactive: -7.34%,
NCCCCNCCCN,"inconclusive: 7.42 µM [inhibitor, partial curve, poor fit]",,
COc1ccc2c(c1)CC[C@@H](CN(C)CC(=O)O)[C@H]2c1ccccc1,inactive,,
CC[C@H](C)C(=O)O[C@H]1C[C@H](O)C=C2C=C[C@H](C)[C@H](CC[C@@H](O)C[C@@H](O)CC(=O)O)[C@H]21,,inactive: 8.45%,
CN(C(=O)c1ccc(F)cc1C(F)(F)F)C1CCN(c2nnc(-c3ccnn3C)c3ccccc23)CC1,"inconclusive: 20.5 µM [inhibitor, single point] and inconclusive: 37.2 µM [inhibitor, partial curve, poor fit]",,
NC(=O)c1cccnc1,inactive,,
Cc1ccc(NC(=O)c2cccc(C(C)(C)C#N)c2)cc1Nc1ccc2ncn(C)c(=O)c2c1,active: 10.5 µM,,
CC(C)C[C@H](NC(=O)c1cc2ccccc2s1)C(=O)N1CCN(C(=O)[C@H](CO)NS(=O)(=O)c2ccc(Cl)cc2Cl)CC1,active: 23.5 µM,,
COc1cccc(N(C)C(=S)Oc2ccc3c(c2)CCCC3)n1,,inactive: -18.6%,
C[C@H]1COC2=C1C(=O)C(=O)c1c2ccc2c1CCCC2(C)C,"inconclusive: 23.5 µM [inhibitor, single point]",,
CC(C)(C)C(=O)Oc1ccc(S(=O)(=O)Nc2ccccc2C(=O)NCC(=O)O)cc1,inactive,,
CC(=O)OCCN1C(=O)c2c(C)nc3ccc(S(=O)(=O)N4CCOCC4)cc3c2C1=O,,,inactive
COc1cc(Nc2c(C#N)cnc3cc(OCCCN4CCN(C)CC4)c(OC)cc23)c(Cl)cc1Cl,active: 596 nM and active: 1.63 µM and active: 1.32 µM,,
CN(C)CCCN1c2ccccc2CCc2ccc(Cl)cc21,"inconclusive: 29.9 µM [inhibitor, single point] and inconclusive: 26.3 µM [inhibitor, single point]",,
CCOC(=O)c1ncn2c1CN(C)C(=O)c1cc(F)ccc1-2,inactive,,
Cc1ccc2c(=O)c3cccc(CC(=O)O)c3oc2c1C,,,inactive
CN1c2ccccc2C(=O)N2CCc3c([nH]c4ccccc34)C21 (configuration not stated),active: 2.09 µM,,
